The target of test [1] is T1, MITA (endogenous, mouse lung fibroblasts) (mouse (endogenous in MLFs)) (UniProt Q3TBT3).
T1 sequence: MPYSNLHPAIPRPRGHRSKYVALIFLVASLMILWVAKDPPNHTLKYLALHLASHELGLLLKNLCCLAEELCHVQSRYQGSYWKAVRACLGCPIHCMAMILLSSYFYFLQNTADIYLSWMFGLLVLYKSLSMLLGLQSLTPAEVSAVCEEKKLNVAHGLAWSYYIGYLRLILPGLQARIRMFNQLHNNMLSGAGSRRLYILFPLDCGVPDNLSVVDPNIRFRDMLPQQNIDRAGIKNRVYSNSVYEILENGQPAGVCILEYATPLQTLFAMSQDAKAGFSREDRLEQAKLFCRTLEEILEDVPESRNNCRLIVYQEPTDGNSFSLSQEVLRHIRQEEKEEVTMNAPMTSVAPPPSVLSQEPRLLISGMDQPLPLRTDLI
In words: co-IP; endogenous co-immunoprecipitation from MLFs (3x10^7), un-infected or early after HSV-1 infection; NP40 lysis buffer; Protein-G sepharose; washes with 500 mM NaCl; immunoblot. A general note: A western blot detects proteins with antibodies after separation by electrophoresis.

Sequences of proteins named here, by UniProt entry; tags and fusion partners are left off.
UniProt Q86WV6: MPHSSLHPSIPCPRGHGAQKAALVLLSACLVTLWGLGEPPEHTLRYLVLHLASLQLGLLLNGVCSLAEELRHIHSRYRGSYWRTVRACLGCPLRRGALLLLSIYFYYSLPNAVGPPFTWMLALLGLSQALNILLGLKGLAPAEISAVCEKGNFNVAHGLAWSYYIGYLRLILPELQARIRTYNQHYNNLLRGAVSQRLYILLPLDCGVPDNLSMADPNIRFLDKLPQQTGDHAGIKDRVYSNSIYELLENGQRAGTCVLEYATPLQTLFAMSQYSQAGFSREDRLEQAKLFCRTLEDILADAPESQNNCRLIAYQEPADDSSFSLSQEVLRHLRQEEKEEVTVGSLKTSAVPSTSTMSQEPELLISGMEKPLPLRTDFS
UniProt Q96KP1: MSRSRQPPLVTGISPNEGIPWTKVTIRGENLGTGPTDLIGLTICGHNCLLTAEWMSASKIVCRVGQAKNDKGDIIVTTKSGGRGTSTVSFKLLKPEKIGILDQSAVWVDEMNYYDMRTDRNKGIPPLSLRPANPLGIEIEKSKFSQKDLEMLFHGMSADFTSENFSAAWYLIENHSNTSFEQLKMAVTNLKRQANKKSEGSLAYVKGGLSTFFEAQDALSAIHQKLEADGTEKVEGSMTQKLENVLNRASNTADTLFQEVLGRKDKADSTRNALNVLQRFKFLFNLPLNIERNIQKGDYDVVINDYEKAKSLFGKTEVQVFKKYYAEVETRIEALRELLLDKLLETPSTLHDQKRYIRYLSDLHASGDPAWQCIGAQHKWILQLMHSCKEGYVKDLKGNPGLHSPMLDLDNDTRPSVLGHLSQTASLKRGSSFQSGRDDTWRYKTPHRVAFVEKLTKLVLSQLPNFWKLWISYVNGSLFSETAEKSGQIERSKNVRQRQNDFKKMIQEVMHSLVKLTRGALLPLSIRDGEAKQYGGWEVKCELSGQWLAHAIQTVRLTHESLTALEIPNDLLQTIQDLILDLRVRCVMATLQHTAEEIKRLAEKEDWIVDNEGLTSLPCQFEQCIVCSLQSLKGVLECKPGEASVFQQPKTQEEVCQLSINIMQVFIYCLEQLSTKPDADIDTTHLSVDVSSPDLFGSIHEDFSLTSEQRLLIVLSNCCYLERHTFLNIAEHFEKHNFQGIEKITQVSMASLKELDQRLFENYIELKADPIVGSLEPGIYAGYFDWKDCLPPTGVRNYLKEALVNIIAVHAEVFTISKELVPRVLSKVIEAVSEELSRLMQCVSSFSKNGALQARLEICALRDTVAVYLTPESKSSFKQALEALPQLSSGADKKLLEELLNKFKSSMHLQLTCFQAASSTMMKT
UniProt Q8NEB9: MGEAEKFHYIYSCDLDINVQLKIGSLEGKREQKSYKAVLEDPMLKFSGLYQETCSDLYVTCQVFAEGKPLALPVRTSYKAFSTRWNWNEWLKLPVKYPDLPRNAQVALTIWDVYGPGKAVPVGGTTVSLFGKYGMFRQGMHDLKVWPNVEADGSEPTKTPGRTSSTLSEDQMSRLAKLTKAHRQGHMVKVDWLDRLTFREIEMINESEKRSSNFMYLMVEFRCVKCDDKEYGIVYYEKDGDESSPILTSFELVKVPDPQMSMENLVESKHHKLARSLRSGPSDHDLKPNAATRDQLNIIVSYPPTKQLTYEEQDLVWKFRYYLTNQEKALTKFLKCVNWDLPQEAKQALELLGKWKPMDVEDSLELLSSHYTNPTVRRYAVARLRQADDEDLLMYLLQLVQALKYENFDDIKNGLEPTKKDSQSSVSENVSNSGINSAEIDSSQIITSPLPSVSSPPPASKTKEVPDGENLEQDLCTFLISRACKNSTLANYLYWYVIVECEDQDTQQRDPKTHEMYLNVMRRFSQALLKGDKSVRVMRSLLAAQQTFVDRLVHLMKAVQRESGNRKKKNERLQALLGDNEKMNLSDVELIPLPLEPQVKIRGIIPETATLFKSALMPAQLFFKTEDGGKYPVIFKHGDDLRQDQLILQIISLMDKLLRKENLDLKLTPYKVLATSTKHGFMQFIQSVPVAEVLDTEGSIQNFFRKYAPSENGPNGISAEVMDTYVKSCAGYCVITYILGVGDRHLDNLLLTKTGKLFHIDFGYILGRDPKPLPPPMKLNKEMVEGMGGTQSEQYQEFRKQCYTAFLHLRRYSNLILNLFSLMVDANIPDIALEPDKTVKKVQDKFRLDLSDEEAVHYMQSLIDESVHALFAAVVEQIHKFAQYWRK
UniProt Q8N884: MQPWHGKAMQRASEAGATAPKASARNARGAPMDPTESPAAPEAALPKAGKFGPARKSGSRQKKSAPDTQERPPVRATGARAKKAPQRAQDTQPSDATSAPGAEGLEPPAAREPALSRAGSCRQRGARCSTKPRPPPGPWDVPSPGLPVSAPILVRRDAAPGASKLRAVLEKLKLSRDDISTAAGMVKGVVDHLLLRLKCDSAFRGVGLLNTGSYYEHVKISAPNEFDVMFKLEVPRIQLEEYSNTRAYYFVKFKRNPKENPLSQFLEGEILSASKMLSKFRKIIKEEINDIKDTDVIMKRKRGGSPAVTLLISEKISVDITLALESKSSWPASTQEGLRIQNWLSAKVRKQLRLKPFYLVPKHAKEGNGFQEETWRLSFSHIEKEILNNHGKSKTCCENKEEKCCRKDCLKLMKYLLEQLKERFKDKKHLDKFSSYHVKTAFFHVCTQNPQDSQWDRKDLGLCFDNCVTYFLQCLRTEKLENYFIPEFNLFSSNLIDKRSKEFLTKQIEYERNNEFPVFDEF

Test [2] addresses MITA (also called STING, MPYS, ERIS, or TMEM173) (UniProt Q86WV6). Put plainly: co-IP; HEK293 cells (2x10^6) transfected with the indicated plasmids (5 μg each) for 24 h (Fig 6E also with knockdown of SNX8); NP40 lysis buffer (20 mM Tris-HCl, 150 mM NaCl, 1 mM EDTA, 1% Nonidet P-40); indicated antibody or control IgG with Protein-G sepharose, at least 2 hr; washed three times with lysis buffer containing 500 mM NaCl; immunoblot.

A further test concerns the target T2, IRF3 (UniProt Q14653).
T2 sequence: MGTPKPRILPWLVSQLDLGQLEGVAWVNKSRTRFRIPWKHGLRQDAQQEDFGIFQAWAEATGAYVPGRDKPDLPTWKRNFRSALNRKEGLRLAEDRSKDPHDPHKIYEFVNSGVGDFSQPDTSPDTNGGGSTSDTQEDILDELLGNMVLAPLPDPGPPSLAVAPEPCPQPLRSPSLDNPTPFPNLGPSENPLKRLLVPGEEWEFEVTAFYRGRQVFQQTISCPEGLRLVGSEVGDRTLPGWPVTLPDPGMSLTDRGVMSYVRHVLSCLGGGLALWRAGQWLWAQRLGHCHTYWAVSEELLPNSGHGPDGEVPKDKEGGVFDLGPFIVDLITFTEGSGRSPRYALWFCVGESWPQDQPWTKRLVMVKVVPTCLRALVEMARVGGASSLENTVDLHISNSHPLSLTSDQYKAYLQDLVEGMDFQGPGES
The test is described as above.

For another test, the target named is Sec5 (UniProt Q96KP1). Described as above.
A further test addresses T3, TBK1 (UniProt Q9UHD2).
T3 sequence: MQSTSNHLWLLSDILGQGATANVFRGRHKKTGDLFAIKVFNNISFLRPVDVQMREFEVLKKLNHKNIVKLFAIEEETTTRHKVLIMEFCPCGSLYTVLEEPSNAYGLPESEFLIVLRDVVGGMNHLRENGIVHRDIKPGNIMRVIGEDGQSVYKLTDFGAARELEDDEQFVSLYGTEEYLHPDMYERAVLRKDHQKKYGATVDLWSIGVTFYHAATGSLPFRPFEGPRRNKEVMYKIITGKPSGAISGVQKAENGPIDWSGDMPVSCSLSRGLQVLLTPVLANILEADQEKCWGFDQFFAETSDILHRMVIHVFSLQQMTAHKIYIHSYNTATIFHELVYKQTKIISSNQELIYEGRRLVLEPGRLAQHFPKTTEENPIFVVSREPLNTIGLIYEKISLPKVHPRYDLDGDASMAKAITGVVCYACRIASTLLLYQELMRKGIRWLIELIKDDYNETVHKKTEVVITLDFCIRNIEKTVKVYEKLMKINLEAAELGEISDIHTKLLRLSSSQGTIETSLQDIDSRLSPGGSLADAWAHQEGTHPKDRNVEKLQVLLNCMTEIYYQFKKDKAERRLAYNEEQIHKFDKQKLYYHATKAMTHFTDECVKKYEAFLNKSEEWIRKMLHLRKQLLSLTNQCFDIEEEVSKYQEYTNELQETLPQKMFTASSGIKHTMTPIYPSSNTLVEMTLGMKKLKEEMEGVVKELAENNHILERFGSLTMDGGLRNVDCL
Described as above.

A further test concerns the target T4, TRAPβ (UniProt P43308).
T4 sequence: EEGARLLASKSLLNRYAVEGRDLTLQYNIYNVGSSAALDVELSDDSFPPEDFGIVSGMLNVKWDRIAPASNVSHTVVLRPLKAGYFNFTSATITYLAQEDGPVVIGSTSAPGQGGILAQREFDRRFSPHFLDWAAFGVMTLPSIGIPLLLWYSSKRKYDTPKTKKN
Described as above.

Test [3] has as its target class III phosphatylinositol 3-kinase (PI3K) VPS34 (UniProt Q8NEB9). Described as above.
For test [4], the target named is cyclic GMP-AMP (cGAMP) synthase (cGAS) (UniProt Q8N884). Described as above.
A further test addresses T5, iRhom2 (UniProt Q6PJF5).
T5 sequence: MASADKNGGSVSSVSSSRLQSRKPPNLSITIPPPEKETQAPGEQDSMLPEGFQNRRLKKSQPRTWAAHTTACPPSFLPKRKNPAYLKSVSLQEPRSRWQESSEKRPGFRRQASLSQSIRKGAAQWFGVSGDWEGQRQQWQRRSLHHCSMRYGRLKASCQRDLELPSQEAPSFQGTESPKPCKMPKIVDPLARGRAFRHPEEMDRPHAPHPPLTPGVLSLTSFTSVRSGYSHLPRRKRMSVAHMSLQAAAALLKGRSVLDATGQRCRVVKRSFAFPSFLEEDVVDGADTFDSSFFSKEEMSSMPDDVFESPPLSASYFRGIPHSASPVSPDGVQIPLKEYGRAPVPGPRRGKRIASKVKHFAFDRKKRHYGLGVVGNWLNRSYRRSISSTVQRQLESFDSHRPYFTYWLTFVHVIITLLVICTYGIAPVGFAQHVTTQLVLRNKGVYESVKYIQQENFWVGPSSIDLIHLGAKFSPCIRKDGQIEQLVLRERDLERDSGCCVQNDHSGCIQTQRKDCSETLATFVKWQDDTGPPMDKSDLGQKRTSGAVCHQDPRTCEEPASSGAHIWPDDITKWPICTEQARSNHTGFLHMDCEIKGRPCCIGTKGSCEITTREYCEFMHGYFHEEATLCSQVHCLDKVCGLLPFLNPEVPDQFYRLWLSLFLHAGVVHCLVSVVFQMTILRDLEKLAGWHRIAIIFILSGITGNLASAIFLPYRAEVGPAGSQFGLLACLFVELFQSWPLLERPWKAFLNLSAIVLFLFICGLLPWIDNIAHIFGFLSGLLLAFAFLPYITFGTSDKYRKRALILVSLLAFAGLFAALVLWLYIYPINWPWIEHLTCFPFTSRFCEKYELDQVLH
The description is as above.

Results are given in words; binding and its absence hold for the method and conditions named. In cells and extracts the contact can be indirect. Some results given as binding are weak or reduced against the parent protein; the word gives no strength.

B1: SNX8 (endogenous, mouse lung fibroblasts) (protein, UniProt Q8CFD4 1-459)
chain: MTGRAMDPLPSPAVAAAAEAEADEEADPPATGPRTSQVTEWRALDPGRMQMPQGNPLLLSYTLQELLAKDTVQVELIPEKKGLFLKHVEYEVSSQRFKSSVYRRYNDFVVFHEVLLHKFPYRMVPALPPKRVLGADREFIEGRRRALKRFINLVARHPPFSEDVLLKLFLSFSGSDVQHKLKEAAQCVGDEFMNCKLAARAKDFLPADIQTQFAMSRELIRNVYNSFYKLRDRAERIASRAIDNAADLLIFGKELSALGSDTTPLPSWAALHLSTWGSLKQALKGLSVEFALLADRAAQQGKKEENDVVEKLNLFLDLLQSYKDLCERHEKGVLHKHQRALHKYGLMKRQMMSAAHGREPESVEQLESRIVEQENVIQTMELRNYFSLYCLHQETQLVHVYLPLTSHILGAFVNSQIQGHKEMSKVWNDLKPKLSCLFAGPHSVLTPPRSPQEDGVCPH
Consider B1, for which, in test [1], the binding entry was “binds”.

B2: SNX8(178–465) (domain or fragment, UniProt Q9Y5X2 178-465)
chain: SGSDVQNKLKESAQCVGDEFLNCKLATRAKDFLPADIQAQFAISRELIRNIYNSFHKLRDRAERIASRAIDNAADLLIFGKELSAIGSDTTPLPSWAALNSSTWGSLKQALKGLSVEFALLADKAAQQGKQEENDVVEKLNLFLDLLQSYKDLCERHEKGVLHKHQRALHKYSLMKRQMMSATAQNREPESVEQLESRIVEQENAIQTMELRNYFSLYCLHQETQLIHVYLPLTSHILRAFVNSQIQGHKEMSKVWNDLRPKLSCLFAGPHSTLTPPCSPPEDGLCPH
Take B2: the binding entry in [2] is given as “no binding”.

B3: Sorting nexin 8 (SNX8) (protein, UniProt Q9Y5X2 1-465)
chain: MTGRAMDPLPAAAVGAAAEAEADEEADPPASDLPTPQAIEPQAIVQQVPAPSRMQMPQGNPLLLSHTLQELLARDTVQVELIPEKKGLFLKHVEYEVSSQRFKSSVYRRYNDFVVFQEMLLHKFPYRMVPALPPKRMLGADREFIEARRRALKRFVNLVARHPLFSEDVVLKLFLSFSGSDVQNKLKESAQCVGDEFLNCKLATRAKDFLPADIQAQFAISRELIRNIYNSFHKLRDRAERIASRAIDNAADLLIFGKELSAIGSDTTPLPSWAALNSSTWGSLKQALKGLSVEFALLADKAAQQGKQEENDVVEKLNLFLDLLQSYKDLCERHEKGVLHKHQRALHKYSLMKRQMMSATAQNREPESVEQLESRIVEQENAIQTMELRNYFSLYCLHQETQLIHVYLPLTSHILRAFVNSQIQGHKEMSKVWNDLRPKLSCLFAGPHSTLTPPCSPPEDGLCPH
In the case of B3, the binding entry with IRF3 is given as “no binding”; in test [2], “binds”; with Sec5, “binds”; with TBK1 it was “no binding”; in the test with TRAPβ, “no binding”; in test [3] it was “binds”. Also, the binding entry is “no binding” in [4] and “binds” in the test with iRhom2.

Values taken from article PMC6188873.
